# Results are given in words; binding and its absence hold for the method and conditions named. Binding seen in cells or lysates may run through a third protein. Some entries that bind do so weakly or less than the wild type.
# Amino acid sequences for entries named in this document (tags omitted).
# UniProt P02340: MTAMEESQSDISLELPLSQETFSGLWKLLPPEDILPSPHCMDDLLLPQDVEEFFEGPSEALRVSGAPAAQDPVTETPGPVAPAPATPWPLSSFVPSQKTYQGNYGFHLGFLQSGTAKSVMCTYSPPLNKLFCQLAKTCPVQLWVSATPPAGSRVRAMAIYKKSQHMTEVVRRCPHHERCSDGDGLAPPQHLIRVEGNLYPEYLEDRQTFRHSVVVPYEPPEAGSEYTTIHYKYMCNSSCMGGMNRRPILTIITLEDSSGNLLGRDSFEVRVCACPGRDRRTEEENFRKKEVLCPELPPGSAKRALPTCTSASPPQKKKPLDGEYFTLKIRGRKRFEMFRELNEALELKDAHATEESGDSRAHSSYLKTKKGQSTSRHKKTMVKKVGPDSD
# T1: Pirh2 (total length, TL) overexpressed by adenovirus in HL-1 cardiomyocytes (UniProt Q9CR50)
# T1 sequence: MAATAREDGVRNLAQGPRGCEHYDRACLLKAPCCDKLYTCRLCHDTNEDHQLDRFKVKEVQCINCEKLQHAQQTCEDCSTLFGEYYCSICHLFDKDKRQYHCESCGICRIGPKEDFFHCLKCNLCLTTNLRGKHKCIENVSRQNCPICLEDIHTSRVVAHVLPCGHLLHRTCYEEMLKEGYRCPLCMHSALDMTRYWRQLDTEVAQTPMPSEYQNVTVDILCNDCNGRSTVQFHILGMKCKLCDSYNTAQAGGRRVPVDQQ
# T2: Pirh2 E3 ubiquitin ligase (ring finger and CHY zinc finger domain containing 1, RCHY1), endogenous in HL-1 cardiomyocytes (mouse (endogenous in HL-1)) (UniProt Q9CR50)
# T2 sequence: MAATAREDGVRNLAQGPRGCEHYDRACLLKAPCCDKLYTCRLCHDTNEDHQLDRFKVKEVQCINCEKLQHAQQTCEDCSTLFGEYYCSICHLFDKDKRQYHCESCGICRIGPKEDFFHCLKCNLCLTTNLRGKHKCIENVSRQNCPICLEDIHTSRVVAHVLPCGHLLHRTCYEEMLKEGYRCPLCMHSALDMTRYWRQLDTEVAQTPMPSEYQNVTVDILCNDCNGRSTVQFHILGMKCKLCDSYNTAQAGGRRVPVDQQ
# T3: full-length Pirh2 (total-length, TL) expressed in HEK293T cells (UniProt Q9CR50)
# T3 sequence: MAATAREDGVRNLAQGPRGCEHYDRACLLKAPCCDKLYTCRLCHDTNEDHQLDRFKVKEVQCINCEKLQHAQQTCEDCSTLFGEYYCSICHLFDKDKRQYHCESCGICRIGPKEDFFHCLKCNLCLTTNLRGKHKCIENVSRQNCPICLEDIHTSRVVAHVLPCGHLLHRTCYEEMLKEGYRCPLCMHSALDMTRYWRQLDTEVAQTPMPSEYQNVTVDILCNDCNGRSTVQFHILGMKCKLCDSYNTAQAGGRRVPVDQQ
# T4: Androgen-induced gene 1 (AIG1), endogenous in HL-1 cardiomyocytes (mouse (endogenous in HL-1)) (UniProt Q9D8B1)
# T4 sequence: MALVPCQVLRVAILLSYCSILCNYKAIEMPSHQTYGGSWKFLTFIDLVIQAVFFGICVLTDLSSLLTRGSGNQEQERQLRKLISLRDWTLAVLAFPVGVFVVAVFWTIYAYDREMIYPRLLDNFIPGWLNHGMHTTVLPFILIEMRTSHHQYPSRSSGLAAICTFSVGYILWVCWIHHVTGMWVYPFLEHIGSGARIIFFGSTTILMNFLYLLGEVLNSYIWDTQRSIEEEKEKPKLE
# T5: Pirh2 Δ137-189 aa mutant expressed in HEK293T cells (UniProt Q9CR50)
# T5 sequence: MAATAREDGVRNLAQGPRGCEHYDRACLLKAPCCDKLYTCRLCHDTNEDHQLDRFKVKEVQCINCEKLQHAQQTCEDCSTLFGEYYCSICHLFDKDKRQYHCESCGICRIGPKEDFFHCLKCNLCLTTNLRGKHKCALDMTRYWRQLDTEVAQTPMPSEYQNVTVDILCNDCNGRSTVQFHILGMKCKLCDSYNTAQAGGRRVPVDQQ
# T6: Pirh2 Δ31-57 aa mutant expressed in HEK293T cells (UniProt Q9CR50)
# T6 sequence: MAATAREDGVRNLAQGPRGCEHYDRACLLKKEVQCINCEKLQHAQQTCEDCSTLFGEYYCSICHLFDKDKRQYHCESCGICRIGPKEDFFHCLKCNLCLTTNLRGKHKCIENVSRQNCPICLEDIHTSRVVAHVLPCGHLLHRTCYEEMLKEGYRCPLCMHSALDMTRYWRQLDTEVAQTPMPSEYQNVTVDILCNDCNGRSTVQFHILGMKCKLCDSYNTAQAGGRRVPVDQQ
# T7: Pirh2 Δ99-107 aa mutant expressed in HEK293T cells (UniProt Q9CR50)
# T7 sequence: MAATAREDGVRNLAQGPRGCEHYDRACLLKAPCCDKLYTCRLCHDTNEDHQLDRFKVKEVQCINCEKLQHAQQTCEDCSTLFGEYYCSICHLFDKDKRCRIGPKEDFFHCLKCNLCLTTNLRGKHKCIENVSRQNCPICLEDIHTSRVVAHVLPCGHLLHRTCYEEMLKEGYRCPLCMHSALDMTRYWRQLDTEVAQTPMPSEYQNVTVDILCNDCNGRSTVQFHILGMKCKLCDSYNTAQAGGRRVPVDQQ
# B1: Androgen-induced gene 1 (AIG1), endogenous in HL-1 cardiomyocytes (protein, UniProt Q9D8B1 1-238)
# chain: MALVPCQVLRVAILLSYCSILCNYKAIEMPSHQTYGGSWKFLTFIDLVIQAVFFGICVLTDLSSLLTRGSGNQEQERQLRKLISLRDWTLAVLAFPVGVFVVAVFWTIYAYDREMIYPRLLDNFIPGWLNHGMHTTVLPFILIEMRTSHHQYPSRSSGLAAICTFSVGYILWVCWIHHVTGMWVYPFLEHIGSGARIIFFGSTTILMNFLYLLGEVLNSYIWDTQRSIEEEKEKPKLE
# B2: AIG1 (total length, TL) overexpressed by adenovirus in HL-1 cardiomyocytes (protein, UniProt Q9D8B1 1-238)
# chain: MALVPCQVLRVAILLSYCSILCNYKAIEMPSHQTYGGSWKFLTFIDLVIQAVFFGICVLTDLSSLLTRGSGNQEQERQLRKLISLRDWTLAVLAFPVGVFVVAVFWTIYAYDREMIYPRLLDNFIPGWLNHGMHTTVLPFILIEMRTSHHQYPSRSSGLAAICTFSVGYILWVCWIHHVTGMWVYPFLEHIGSGARIIFFGSTTILMNFLYLLGEVLNSYIWDTQRSIEEEKEKPKLE
# B3: RNF34, endogenous in cardiomyocytes (enzyme, UniProt Q99KR6 1-376)
# chain: MKAGATSMWASCCGLLNEVMGTGAVRGQQAGFPGSTGPFRFTPSSDFPTYPPAATEGPNIVCKACGLSFSVFRKKHVCCDCKKDFCSLCSVSQENLRRCSTCHLLQETAFQRPQLMRLKVKDLRQYLLLRNIPTDTCREKEDLVDLVLCHRGLGSGDDLDSSSLNSSRSQTSSFFTQSLFSNYTPPSATVSSFQGELMDRDGAFRSEVLAQVQSEIASANTDDDDDDDDDDDDDEDDDDEQEEEEQNPGLSKKKARASLSDLSSLEEVEGMSVRQLKEILARNFVNYSGCCEKWELVEKVNRLYKENEENQKSYGERMQLQDEEDDSLCRICMDAVIDCVLLECGHMVTCTKCGKRMSECPICRQYVVRAVHVFKS
# B4: full-length AIG1 (total-length, TL) expressed in HEK293T cells (protein, UniProt Q9D8B1 1-238)
# chain: MALVPCQVLRVAILLSYCSILCNYKAIEMPSHQTYGGSWKFLTFIDLVIQAVFFGICVLTDLSSLLTRGSGNQEQERQLRKLISLRDWTLAVLAFPVGVFVVAVFWTIYAYDREMIYPRLLDNFIPGWLNHGMHTTVLPFILIEMRTSHHQYPSRSSGLAAICTFSVGYILWVCWIHHVTGMWVYPFLEHIGSGARIIFFGSTTILMNFLYLLGEVLNSYIWDTQRSIEEEKEKPKLE
# B5: AIG1 Δ161-175 aa mutant expressed in HEK293T cells (protein, UniProt Q9D8B1)
# chain: MALVPCQVLRVAILLSYCSILCNYKAIEMPSHQTYGGSWKFLTFIDLVIQAVFFGICVLTDLSSLLTRGSGNQEQERQLRKLISLRDWTLAVLAFPVGVFVVAVFWTIYAYDREMIYPRLLDNFIPGWLNHGMHTTVLPFILIEMRTSHHQYPSRSSGLAIHHVTGMWVYPFLEHIGSGARIIFFGSTTILMNFLYLLGEVLNSYIWDTQRSIEEEKEKPKLE
# B6: AIG1 Δ35-93 aa mutant expressed in HEK293T cells (protein, UniProt Q9D8B1)
# chain: MALVPCQVLRVAILLSYCSILCNYKAIEMPSHQTAFPVGVFVVAVFWTIYAYDREMIYPRLLDNFIPGWLNHGMHTTVLPFILIEMRTSHHQYPSRSSGLAAICTFSVGYILWVCWIHHVTGMWVYPFLEHIGSGARIIFFGSTTILMNFLYLLGEVLNSYIWDTQRSIEEEKEKPKLE
# Key:
# [1] = target: T1, Pirh2 (total length, TL) overexpressed by adenovirus in HL-1 cardiomyocytes; test: proximity ligation; DOX-treated HL-1 cardiomyocytes transfected with Vector, total-length or deletion-mutant AIG1 or Pirh2 adenovirus
# [2] = target: T2, Pirh2 E3 ubiquitin ligase (ring finger and CHY zinc finger domain containing 1, RCHY1), endogenous in HL-1 cardiomyocytes (mouse (endogenous in HL-1)); test: proximity ligation; endogenous proteins in HL-1 cardiomyocytes; DMSO or DOX (1 μM, 24 h), with or without AIG1 knockdown or overexpression
# [3] = target: T2, Pirh2 E3 ubiquitin ligase (ring finger and CHY zinc finger domain containing 1, RCHY1), endogenous in HL-1 cardiomyocytes (mouse (endogenous in HL-1)); test: co-IP; Co-IP using anti-Pirh2 in HL-1 cardiomyocytes with or without AIG1 knockdown or overexpression under DOX (1 μM, 24 h) stress
# [4] = target: T3, full-length Pirh2 (total-length, TL) expressed in HEK293T cells; test: co-IP; MG132-treated HEK293T cells co-transfected with AIG1, Pirh2 and p53 constructs (Figure 5Q, S8S)
# [5] = target: T2, Pirh2 E3 ubiquitin ligase (ring finger and CHY zinc finger domain containing 1, RCHY1), endogenous in HL-1 cardiomyocytes (mouse (endogenous in HL-1)); test: proximity ligation; endogenous proteins in HL-1 cardiomyocytes; DMSO or DOX (1 μM, 24 h), with or without AIG1 knockdown or overexpression; remark: listed apart in the source
# [6] = target: T2, Pirh2 E3 ubiquitin ligase (ring finger and CHY zinc finger domain containing 1, RCHY1), endogenous in HL-1 cardiomyocytes (mouse (endogenous in HL-1)); test: co-IP; endogenous proteins in cardiomyocytes, steady state and after DOX treatment (Figure S8N); bait antibody not told in the shown text
# [7] = target: T2, Pirh2 E3 ubiquitin ligase (ring finger and CHY zinc finger domain containing 1, RCHY1), endogenous in HL-1 cardiomyocytes (mouse (endogenous in HL-1)); test: proximity ligation; DOX-treated HL-1 cardiomyocytes transfected with Vector, total-length or deletion-mutant AIG1 or Pirh2 adenovirus
# [8] = target: T4, Androgen-induced gene 1 (AIG1), endogenous in HL-1 cardiomyocytes (mouse (endogenous in HL-1)); test: co-IP; endogenous proteins in cardiomyocytes, steady state and after DOX treatment (Figure S8N); bait antibody not told in the shown text
# [9] = target: T5, Pirh2 Δ137-189 aa mutant expressed in HEK293T cells; test: co-IP; Co-IP using an anti-HA tag in HEK293T cells co-transfected with total-length or truncated AIG1 and Pirh2 vectors
# [10] = target: T6, Pirh2 Δ31-57 aa mutant expressed in HEK293T cells; test: as above
# [11] = target: T3, full-length Pirh2 (total-length, TL) expressed in HEK293T cells; test: as above
# [12] = target: T7, Pirh2 Δ99-107 aa mutant expressed in HEK293T cells; test: as above
molecule,measurement,setting,value
"p53, endogenous in HL-1 cardiomyocytes (from UniProt P02340 1-390)",binding,[1],binds
same,binding,[2],binds
same,binding,[3],binds
exogenous p53 expressed in HEK293T cells (from UniProt P02340 1-390),binding,[4],binds
B1,binding,[1],binds
same,binding,[5],binds
same,binding,[6],binds
B2,binding,[7],binds
B3,binding,[8],binds
B4,binding,[9],binds
same,binding,[10],no binding
same,binding,[11],binds
same,binding,[12],binds
B5,binding,[11],binds
B6,binding,[11],no binding

# Source: PMC12036874
